The results in this text go back to PubChem BioAssay (NCATS).

Structures are written as SMILES. This is one part of the list. Shown are side measurements of this screen, not its main read-out; they come without a call. Words in brackets tell the shape of the fitted curve; partial curves, single points and poor fits give uncertain potencies.

What is called AC50 is the concentration at which the activity in the assay is half-maximal.
Tags give direction and shape of the fitted curve.

This test in a line: qHTS drug screen for cell cycle checkpoint inhibitors in PARPi-resistant BRCA-mutant ovarian cancer cell lines. (AID 1963452). To be noted: PEO1/OlaR viability, CellTiter-Glo luminescence, 96 h; measured here: PEO4 viability. The procedure, abridged:
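PEO1, PEO4 and PEO1/OlaR ovarian cancer cells, 600 per well, exposed 96 h at 37C to a dilution series. Viability read by CellTiter-Glo luminescence, normalized to DMSO and empty wells; activity summarized as Z-AUC.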
A general note: Quantitative high-throughput screening tests each substance at several concentrations.
For the compound `CN1CCN(C2CCN(C(=O)Nc3cc(Oc4ccc(NC(=O)C5(C(=O)Nc6ccc(F)cc6)CC5)c(F)c4)ccn3)CC2)CC1`, the AC50 is 15.5 µM [falling, single point]. Next, `O=C(CCCCCCC(=O)N/N=C/c1ccc(N(c2ccccc2)c2ccccc2)cc1)NO`: 13.8 µM [falling, partial curve]; `CN(C)CCN1C(=O)c2cccc3cc(NC(N)=O)cc(c23)C1=O`: 27.5 µM [falling, single point]; `CC(C)n1nc(-c2cc3cc(O)ccc3[nH]2)c2c(N)ncnc21`: 1.1 µM [falling, full curve]. As for `C[C@H](NC(=O)/C(C#N)=C/c1cccc(Br)n1)c1ccccc1`, the AC50 was 6.92 µM [falling, partial curve]. Next, `Nc1nc(Cl)nc2c1ncn2[C@@H]1O[C@H](CO)[C@@H](O)[C@@H]1F`: 0.347 µM [falling, full curve]. Next, `C=CC(=O)N1CC/C(=C\c2ccc(F)c([N+](=O)[O-])c2)C(=O)/C(=C/c2ccc(F)c([N+](=O)[O-])c2)C1`: 0.195 µM [falling, full curve]. With `CCNCCS(=O)(=O)NC[C@@]1(c2ccccc2)SC(NC(=O)C(C)(C)C)=NN1C(=O)C(C)(C)C`, the AC50 is 0.0087 µM [falling, full curve].
